According to PubChem BioAssay AID588855 (National Center for Advancing Translational Sciences (NCATS), 2011):
Screen size: about 410,000 compounds; about 5,000 (1.2%) were called active. Inconclusive means that the source gave no clear call. Such entries were picked first, then a sample of the others. Calls follow the shape of the dose curve; as a rule, active = well fitted inhibition curve with a large enough effect; inconclusive = small, poorly fitted or top-dose-only effect; inactive = no such curve, though single readings can be large or run the other way. A potency beside an inconclusive call is a rough fit, not a confirmed value.

assay: qHTS for Inhibitors of TGF-b; details: HepG2 CAGA-GFP TGF-b/SMAD3 reporter, GFP fluorescence, 18 h, TGF-beta stimulated, 500 pg/mL final; series mostly up to 46.1 µM; also: nearly all actives have a fitted effect of over 65% in size
Method in brief: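 GFP signal (ex488/em500-530) from TGF-beta-stimulated HEPG2 CAGA-GFP cells, 500 pg/mL final, 18 h at 37 degrees C in DMEM plus 1% FBS, normalized to unstimulated and DMSO-stimulated controls.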
Potency is read from the fitted curve at half-maximal effect; tags tell the direction and shape of the fitted curve.

Structure (SMILES)	Potency
COc1ccc(C(=O)c2cn(Cc3ccc(F)cc3)c3ccc(C)cc3c2=O)cc1	inconclusive: 35.5 µM [inhibitor, single point]
Cc1ccc(CNC(=O)CCc2c(C)nn(-c3ccc(N4CCCCC4)nn3)c2C)cc1	inactive
Cc1ccc(O)c(C(=O)c2cnc3onc(-c4ccc(F)cc4)c3c2)c1	inconclusive: 35.5 µM [inhibitor, single point]
COc1ccc(C2C(C#N)=C(N)OC3=C2C(=O)CC(C)(C)C3)cc1Cn1cc([N+](=O)[O-])cn1 (centres undefined)	inconclusive: 10 µM [inhibitor, partial curve]
CN(C)CCCNc1nc2cc(-c3ccc4c(ccn4C)c3)sc2c(=O)n1C	inconclusive: 35.5 µM [inhibitor, single point]
COc1cc(/C=N/Nc2snc(SC)c2C#N)cc(OC)c1OC	inconclusive: 1 µM [inhibitor, full curve, poor fit]
COc1ccc(C(=O)COC(=O)c2cccc(NC(=O)c3ccc(OC)c(OC)c3)c2)cc1	inactive
COc1ccc(-c2cn3c4c(sc3n2)CCCC4)cc1	inactive
CCN(CC)CCN(C(=O)c1cc2ccccc2cc1OC)c1nc2ccc(OC)cc2s1	inconclusive: 35.5 µM [inhibitor, single point]
Cc1cc2ccccc2n2c(SCC(=O)Nc3ccc(S(=O)(=O)N4CCC(C)CC4)cc3)nnc12	inconclusive: 5.62 µM [inhibitor, single point]
Oc1cc(O)c2c(c1)O[C@H](c1ccc(O)c(O)c1)[C@H](O)C2	inconclusive: 35.5 µM [inhibitor, partial curve, poor fit]
CC1(C(=O)Nc2ccc(Cl)c(Cl)c2)CCN1Cc1cc2ccccc2o1 (centres undefined)	inactive
CC(C)(C)n1[nH]c2c3c(ccc2c1=O)C(=O)c1ccccc1C3=O	active: 10 µM
Cc1ccc2c(c1)c1c(n2CC(O)CN2CCC(C)CC2)CCCC1 (centres undefined)	inconclusive: 3.55 µM [inhibitor, single point]
COc1ccc(OCC(O)CNCCOc2ccccc2OC)c(C(C)(C)C)c1 (centres undefined)	active: 12.6 µM
CCOC(=O)C(CC)Sc1nnc2c3cc(C)ccc3n(C)c2n1 (centres undefined)	inactive
C=CCOc1ccc(Br)cc1CNCCCN1CCOCC1	inactive
COc1cc(S(=O)(=O)N2CCN(c3ccc(F)cc3)CC2)ccc1Cl	inconclusive: 1.58 µM [inhibitor, partial curve, poor fit]
COc1cccc(-c2nc(CS(=O)(=O)CC(=O)NCc3ccc(C)cc3)c(C)o2)c1	inconclusive: 3.98 µM [inhibitor, partial curve, poor fit]
COc1ccc(C2c3c(-c4c(C)cc(C)cc4O)n[nH]c3C(=O)N2Cc2ccco2)cc1 (centres undefined)	inconclusive: 22.4 µM [inhibitor, single point]
COc1ccccc1OCc1nnc(SCC(=O)N2CCCCC2)n1-c1ccccc1	inconclusive: 15.8 µM [inhibitor, partial curve]
CCOc1ccc(C(=O)NNC(=O)C2CC(=O)N(c3ccc(C)cc3)C2)cc1 (centres undefined)	inactive

Structure (SMILES)	Potency
CCCc1nc([N+](=O)[O-])c(S(=O)(=O)c2ccccc2)n1CC(C)C	active: 10 µM
O=C(NC1CCCCCC1)C1CCN(S(=O)(=O)c2cccc3cccnc23)CC1	inactive
O=C(O)C(c1ccccc1)C(O)C1CCCC1 (centres undefined)	inconclusive: 14.1 µM [inhibitor, single point]
CCn1c(SCC(=O)Nc2nc3ccc(C)cc3s2)nc2c(c1=O)SC(C)C2 (centres undefined)	inconclusive: 15.8 µM [inhibitor, single point]
CCOC(=O)c1cccc(NC(=O)c2ccc3c(Cl)c4c(nc3c2)CCC4)c1	inconclusive: 5.62 µM [inhibitor, single point]
O=C(NCCCN1CCN(c2ccc(F)cc2)CC1)Nc1ccc(Cl)cc1	inconclusive: 35.5 µM [inhibitor, single point]
Cc1ccccc1Nc1nc(N)nc(CSCC(=O)Nc2cccc(Br)c2)n1	inconclusive: 35.5 µM [inhibitor, single point]
O=C1CCN(Cc2ccc(O)cc2)CCN1[C@H](CO)c1ccccc1	inconclusive: 6.31 µM [inhibitor, single point]
COCCN(CCOC)C(=O)c1ccc(CSc2nc3ccccc3s2)cc1	inconclusive: 20 µM [inhibitor, single point]
Cc1ccc(NC(=O)c2oc3ccccc3c2NC(=O)c2ccccc2C)cc1	inconclusive: 1.41 µM [inhibitor, partial curve, poor fit]
Cc1cccc(NC(=O)CCOc2ccccc2)c1C	inconclusive: 3.55 µM [inhibitor, single point]
COc1ccc2nc(SCC(N)=O)cc(C)c2c1	inconclusive: 5.62 µM [inhibitor, single point]
CCOC(=O)c1c(-c2ccccc2)oc2ccc(NS(=O)(=O)c3ccc(C)cc3C)cc12	inconclusive: 35.5 µM [inhibitor, single point]
CCCC(=O)Nc1ccc(C(=O)N/N=C/c2ccc[nH]2)cc1	inconclusive: 22.4 µM [inhibitor, single point]
COC(=O)[C@@]1(Cc2ccccc2)[C@H]2C(=O)N(Cc3ccccc3)C(=O)[C@H]2[C@H]2CN=C(SCc3ccc(Cl)cc3)N21	inconclusive: 7.94 µM [inhibitor, partial curve, poor fit]
CC=C1COC(C(=O)NCCOCCO)(C(F)(F)F)C=C1C=C(C)C (centres undefined)	inconclusive: 22.4 µM [inhibitor, single point]
Cc1ccccc1OCC(=O)Nc1ccc2c(c1)Cc1ccccc1-2	inactive
CCOC(=O)N(C)c1c(CC)nc2c(OCCOc3ccccc3)cccn12	inactive
C[n+]1ccnc2cc(Cl)ccc21	active: 1.12 µM
CCc1c(C)sc(NC(=O)C2CC2c2ccccc2)c1C(N)=O (centres undefined)	inactive
Cc1cc(C)c(CN2CCN(C(=O)Cn3ccc(NC(=O)OCc4ccccc4)nc3=O)CC2)c(C)c1	inconclusive: 7.08 µM [inhibitor, full curve, poor fit]
Nc1cc(C(=O)OCC(=O)N2CCC(Cc3ccccc3)CC2)ccc1Cl	inactive

Structure (SMILES)	Potency
CC(/C=N/NC(=O)c1nnn(-c2nonc2N)c1CN1CCCCC1)=C\c1ccccc1	inconclusive: 11.2 µM [inhibitor, single point]
O=C(Cc1nnc(NC(=O)c2cccc([N+](=O)[O-])c2)s1)NCc1ccccc1	inconclusive: 15.8 µM [inhibitor, single point]
CCc1ccc(CN(Cc2cn[nH]c2-c2ccc(OC)cc2)C(=O)Nc2ccc(C)c(F)c2)cc1	active: 10 µM
CC(=O)c1cc(CN2CCC(C(=O)Nc3cccc(-c4cscn4)c3)CC2)cs1	inconclusive: 10 µM [inhibitor, partial curve]
Cc1nc2ccc(NC(=O)c3cccc(S(=O)(=O)N(C)c4ccccc4)c3)cc2s1	inconclusive: 35.5 µM [inhibitor, single point]
O=C1OCCN1C(=O)[C@H]1[C@H](c2ccc(F)cc2)C(c2ccc(F)cc2)=NN1c1ccccc1	inconclusive: 22.4 µM [inhibitor, single point]
CCOC(=O)c1c(-c2ccc(C)cc2)csc1NC(=O)c1nc(SCC)ncc1Cl	inconclusive: 6.31 µM [inhibitor, single point]
O=[N+]([O-])c1ccc(/C=N/Nc2ccnc3cc(Cl)ccc23)o1	inconclusive: 35.5 µM [inhibitor, single point]
Cc1ccc(-n2c(=O)c3ccc(C(=O)NCc4ccccc4Cl)cc3n(Cc3ccccc3F)c2=O)cc1	inconclusive: 3.98 µM [inhibitor, single point]
CCCCCCN1C[C@H](n2cc(-c3ccc(F)cc3)nn2)[C@@H](O)C[C@@H]1c1ccc(C)cc1	inconclusive: 22.4 µM [inhibitor, single point]
O=C(COC(=O)c1ccc(Cl)c(S(=O)(=O)NCc2ccccc2)c1)NC1CC1	inconclusive: 28.2 µM [inhibitor, single point]
CCN(CC)C(=O)c1ccc(-c2ccccc2)cc1	inconclusive: 1.12 µM [inhibitor, full curve, poor fit]
COc1cccc(Cn2nnc(C(=O)NCc3ccc4c(c3)OCO4)c2N)c1	inconclusive: 35.5 µM [inhibitor, single point]
COc1ccc(C/C(N)=N/OC(=O)Cc2ccc(OC)c(OC)c2)cc1	inconclusive: 6.31 µM [inhibitor, partial curve, poor fit]
O=C(O)c1ccc(Br)c(S(=O)(=O)N2CCCC2)c1	inactive
Cc1ccc(-c2cccc(C(=O)NCc3ccccc3)n2)c2ccccc12	inconclusive: 25.1 µM [inhibitor, single point]
COc1cc(/C=N/NC(=O)c2cc(-c3cccs3)nc3ccccc23)ccc1O	inconclusive: 35.5 µM [inhibitor, single point]
C[C@@H]1CN([C@H](C)CO)C(=O)CCCn2nncc2CO[C@H]1CN(C)Cc1ccc(-c2ccccc2)cc1	inconclusive: 25.1 µM [inhibitor, single point]
Cc1cccc(N2CCN(C(=O)c3ccc(CS(=O)Cc4ccc(Cl)cc4)o3)CC2)c1C (centres undefined)	inconclusive: 35.5 µM [inhibitor, single point]
CC(=O)N(C)c1ccc(OCC(O)Cn2c3ccc(Cl)cc3c3cc(Cl)ccc32)cc1 (centres undefined)	inconclusive: 35.5 µM [inhibitor, single point]
